Results as given in PubChem BioAssay AID624170 (National Center for Advancing Translational Sciences (NCATS), 2012).
About 850 (0.21%) of roughly 410,000 compounds were called active. The inconclusive results got no clear call from the source; some entries with a clear call stand among them for comparison. Calls follow the shape of the dose curve; as a rule, active = well fitted inhibition curve with a large enough effect; inconclusive = small, poorly fitted or top-dose-only effect, or another doubt; inactive = no such curve, though single readings can be large or run the other way. Potencies beside an inconclusive call are fits to weak or partial responses and may not hold up.

target: Glutaminase kidney isoform, mitochondrial (Homo sapiens) (UniProt O94925); assay: qHTS for Inhibitors of Glutaminase (GLS); settings: GLS enzymatic activity, qHTS titration; series mostly up to 45.5 µM
UniProt O94925, sequence (O94925 whole entry, looked up, canonical isoform): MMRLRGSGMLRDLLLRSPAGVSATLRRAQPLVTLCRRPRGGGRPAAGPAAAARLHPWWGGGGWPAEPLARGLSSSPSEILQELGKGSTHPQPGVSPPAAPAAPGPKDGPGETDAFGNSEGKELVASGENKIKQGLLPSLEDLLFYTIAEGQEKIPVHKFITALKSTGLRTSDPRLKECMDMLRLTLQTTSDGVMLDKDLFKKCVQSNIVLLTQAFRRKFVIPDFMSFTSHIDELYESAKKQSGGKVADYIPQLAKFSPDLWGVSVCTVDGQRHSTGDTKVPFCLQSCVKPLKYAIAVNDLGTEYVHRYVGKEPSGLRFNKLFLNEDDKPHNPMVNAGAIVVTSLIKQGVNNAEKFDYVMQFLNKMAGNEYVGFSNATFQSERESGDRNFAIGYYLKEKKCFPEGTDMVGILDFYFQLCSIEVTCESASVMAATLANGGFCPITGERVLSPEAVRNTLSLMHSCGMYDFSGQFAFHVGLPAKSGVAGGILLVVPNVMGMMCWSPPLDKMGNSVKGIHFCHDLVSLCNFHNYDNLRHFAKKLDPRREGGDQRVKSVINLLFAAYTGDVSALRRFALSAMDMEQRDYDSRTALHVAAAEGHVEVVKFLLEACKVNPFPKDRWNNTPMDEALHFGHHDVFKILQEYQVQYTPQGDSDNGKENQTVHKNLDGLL
Summary of the method: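 hKGA in 45 mM KH2PO4 (pH 8.2), 0.02% Tween-20 with compound, then 1mM L-Glutamine (stock as added) plus glutamate oxidase/HRP/Amplex red coupling mix. Fluorescence read initially and after 30 min at RT; signal change reflects glutamate formation.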
Potency is read from the fitted curve at half-maximal effect; tags tell the direction and shape of the fitted curve.

Potency, active:
COc1cc(-c2cc(=O)c3c(O)c(OC)c(OC)c(O)c3o2)ccc1O 2.82 µM, O=C(O)C1Sc2[nH]c(=O)sc2C2c3ccc(O)cc3OC(=O)C12 (configuration not stated) 8.91 µM, COc1cccc(CNc2ccc3[nH]c(=O)[nH]c3c2)c1OCc1ccccc1 15.8 µM, COc1ccccc1CN1C(=O)c2cccc3cccc(c23)C1=O 7.94 µM, CC(=O)C1=C(c2ccccc2)NC(=O)NC1c1ccc(O)c(O)c1 (configuration not stated) 10 µM

Potency, inactive:
CC(CCc1ccccc1)NC(=O)CNC(=S)N(Cc1cccs1)C1CCCC1 (configuration not stated), FC(F)(F)c1cnc(-c2cnc3c(-c4ccc(Cl)cc4)cnn3c2)c(Cl)c1, O=c1oc2ccccc2n1CSc1nc2ccccc2s1, O=c1oc2cc(O)ccc2cc1-c1nc(-c2ccc(Cl)c(Cl)c2)cs1, CSc1ccccc1OCc1cc(C(=O)N2CCCC(C)C2)no1 (configuration not stated), O=C(COc1ccccc1)NC(=S)N1CCc2ccccc21, O=C(COC(=O)c1ccc(Cl)nc1)NCc1ccco1, CC(C)CN1CCNC(=O)C1CC(=O)NCCc1cnn(-c2ccccc2)c1 (configuration not stated), O=C(Nc1cccc(Cl)c1)c1cc2c(=O)n3ccccc3nc2s1, COc1ccc(-c2cn3nc(N4CCC(C(=O)Nc5cc(Cl)ccc5C)CC4)sc3n2)cc1, O=C(CN1C(=O)C2(SCC(=O)N2c2cccc(Cl)c2)c2ccccc21)NCc1ccccc1 (configuration not stated), Cc1ccc(NC(=O)C2(C)CCN2Cc2cccc3c2OCO3)cc1O (configuration not stated), COc1ccc(-c2csc(NCCc3nc4cc(Cl)c(N5CCCCC5)cc4n3CCOCCO)n2)cc1, O=c1c2ccccc2c(C=Nc2cccc(O)c2)c(O)n1-c1ccc2c(c1)OCO2, CCNC(=O)NC(=O)C(C)OC(=O)c1cccn1C (configuration not stated), COc1cc2c(cc1OC)CN(C(=O)CCOc1ccccc1C)CC2, Cc1cccc(CN(CC(=O)N/N=C/c2ccco2)S(=O)(=O)c2ccc(Cl)cc2)c1, COc1cccc(NC(=O)CN(CCc2ccccc2)S(=O)(=O)c2ccc(Cl)cc2)c1, CC(C)c1cc(C(=O)OCC(=O)N2CCN(C(=O)c3ccco3)CC2)c(O)c(C(C)C)c1, Cc1nc(C/C(=N\Nc2ccccc2)c2ccc(O)cc2O)cs1, Cc1ncc(C(O)c2ccc(N(C)C)cc2)n1Cc1ccccc1 (configuration not stated), O=C(CN1C(=O)NC(Cc2ccccc2)C1=O)Nc1ccccc1F (configuration not stated)

Potency, inconclusive:
CCc1ccccc1NC(=O)COc1ccc(N2CC(C(N)=O)CC2=O)cc1 (configuration not stated) 35.5 µM [inhibitor, single point], O=C(O)COn1c(-c2ccccc2)nc2ccc([N+](=O)[O-])cc21 15.8 µM [inhibitor, single point], CCOC(=O)c1cnc2ccc(OCC)cc2c1NCCN1CCOCC1 35.5 µM [inhibitor, single point], O=C(O)c1ccccc1C(=O)Nc1n[nH]c(=S)s1 22.4 µM [inhibitor, single point], CCCCC(=O)Nc1sc2c(c1C#N)CC(C)(C)OC2 35.5 µM [inhibitor, single point], Cc1csc2ncc(C(=O)NCc3ccco3)c(=O)n12 11.2 µM [inhibitor, partial curve], Cc1[nH][nH]c(=O)c1C(c1ccc(-c2ccccc2C(=O)O)o1)c1c(C)[nH][nH]c1=O 35.5 µM [inhibitor, single point], Cc1ccc(NNC(=O)c2c(F)cccc2Cl)cc1Cl 11.2 µM [inhibitor, partial curve], Cc1ccc(S(=O)(=O)C(CNC(=O)COc2ccccc2)c2cccs2)cc1 (configuration not stated) 11.2 µM [inhibitor, partial curve, poor fit], COc1ccc(CC(=O)Nc2ncc([N+](=O)[O-])s2)cc1OC 35.5 µM [inhibitor, single point], CC(=O)Nc1ccc(Nc2nc(-c3sc(C)nc3C)cs2)cc1 8.91 µM [inhibitor, partial curve], O=C(/C=C/c1ccc(Cl)cc1Cl)NCc1ccncc1 6.31 µM [inhibitor, single point], Cc1cc(NC(=O)CCCn2cnc([N+](=O)[O-])n2)no1 22.4 µM [inhibitor, single point], COc1ccc(-c2ccn(-c3cccc(F)n3)n2)cc1 14.1 µM [inhibitor, partial curve], C/C(=N\NC(=O)CSc1nc2ccccc2o1)c1ccc(O)cc1 8.91 µM [inhibitor, partial curve, poor fit], O=C(CSc1ccccc1C(=O)O)c1ccc([N+](=O)[O-])cc1 17.8 µM [inhibitor, single point], Cc1ccc(C2=CC(c3ccccc3C)n3c(nc4ccccc43)N2)cc1 (configuration not stated) 35.5 µM [inhibitor, single point], CCOC(=O)C1CCN(Cc2cc(C(C)C)c(O)c(C(C)C)c2)CC1 10 µM [inhibitor, partial curve], CCOC(=O)CSc1nnc(COc2ccc3ccccc3c2)o1 20 µM [inhibitor, partial curve, poor fit], Cc1ccc(C)c(NNC(N)=S)c1 11.2 µM [inhibitor, partial curve], Nc1ccc(-c2n[nH]c(=O)c3ccccc23)cc1N 22.4 µM [inhibitor, partial curve, poor fit], COc1ccc(/C=N/Nc2nc(Nc3ccccc3)nc(N3CCCCC3)n2)cc1OC 22.4 µM [inhibitor, single point], CC(C)CC(NS(=O)(=O)OCC(Cl)(Cl)Cl)c1ccccc1 (configuration not stated) 22.4 µM [inhibitor, single point], C/C(=N\Nc1cccc(C(F)(F)F)c1)c1ccc(O)cc1 20 µM [inhibitor, partial curve], O=C(CCN1C(=O)C2C3C=CC(C3)C2C1=O)NCCN1CCCc2ccccc21 (configuration not stated) 20 µM [inhibitor, single point], CC(C)C1N=C2c3ccccc3N=C(SCC(=O)c3ccc(O)c(O)c3)N2C1=O (configuration not stated) 2.51 µM [inhibitor, full curve, poor fit], CCOC(=O)C1C(c2ccc3c(c2)OCO3)NC(=O)NC1(O)C(F)(F)F (configuration not stated) 35.5 µM [inhibitor, single point], O=C(NC(Cc1ccccc1)C(=O)O)/C(=C\c1ccc(Br)cc1)NC(=O)c1ccc(Br)o1 (configuration not stated) 28.2 µM [inhibitor, single point], Oc1cccc(C=Nc2cccc3ccccc23)c1O 35.5 µM [inhibitor, single point], Cc1ccc(Nc2c(-c3ccccn3)nc3cc(C)ccn23)cc1 22.4 µM [inhibitor, single point], CN1CN(C)c2ccc([N+](=O)[O-])c3cccc1c23 11.2 µM [inhibitor, partial curve], CCOC(=O)C1CCN(C(=O)CNC(=O)c2nn(-c3ccc(OC)c(OC)c3)c(=O)c3ccccc23)CC1 22.4 µM [inhibitor, partial curve, poor fit], Cc1ccc(/C=N/n2cc(-c3ccccc3)[nH]c2=S)s1 2.82 µM [inhibitor, full curve], O=C(Nc1cccs1)Nc1c(F)cc(F)cc1Br 10 µM [inhibitor, partial curve], N#C/C(=N\Nc1ccc(S(=O)(=O)N2CCOCC2)cc1)C(N)=S 25.1 µM [inhibitor, single point], NC(CCCCCP(=O)(c1ccccc1)c1ccccc1)C(=O)O (configuration not stated) 3.55 µM [inhibitor, single point], O=C(CCCCCn1c(=S)[nH]c2ccsc2c1=O)NC1CCCCC1 17.8 µM [inhibitor, partial curve, poor fit], COC(=O)c1ccc(CN2C(=O)c3ccccc3C2=O)o1 6.31 µM [inhibitor, single point], Cc1cc(OC(C)C(=O)NC(Cc2c[nH]c3ccc(O)cc23)C(=O)O)c2c(C)cc(=O)oc2c1 (configuration not stated) 10 µM [inhibitor, partial curve], CCCC1NC(C(=O)O)Cc2c1[nH]c1ccccc21 (configuration not stated) 0.224 µM [inhibitor, full curve], CCc1n[nH]c(=S)n1/N=C/c1cc(OC)cc([N+](=O)[O-])c1O 35.5 µM [inhibitor, single point], Nc1c(NCCC2=CCCCC2)c(=O)[nH]c(=O)n1Cc1ccccc1 35.5 µM [inhibitor, single point], Cc1ccc(C)c(/C=N/n2cc(-c3ccccc3)[nH]c2=S)c1 12.6 µM [inhibitor, partial curve], S=c1[nH]nc(NCCCN2CCOCC2)s1 17.8 µM [inhibitor, single point], COCCn1c(SCC(=O)Nc2cccc(S(N)(=O)=O)c2)nc2cc(Cl)ccc2c1=O 35.5 µM [inhibitor, single point]
